A number of entries come with more than one value. The other results are left out here. An entry can have further records. The values listed for one entry are repeats in other runs, samples, wells, individuals or studies.
Tested on: 361931-004-R-J1-PDC multicell spheroid viability
Test: Anticancer human tumor 361931-004-R-J1-PDC patient-derived colon adenocarcinoma cell line growth inhibition [PI3K]
Settings: for viability, T/C: stronger effect = lower value; for IC50: compound alone
Source text: Combinatorial screen of targeted agents with the PI3K inhibitors inavolisib, alpelisib, duvelisib, and copanlisib in multi-cell type tumor spheroids
A high-throughput screen of multi-cell type tumor spheroids was designed to identify active combinations of targeted small molecules and PI3K pathway inhibitors. Complex spheroids include a stromal component modeled by human endothelial cells (HUVEC) and fibroblasts modeled by human mesenchymal stem cells (MSCs). The concentration ranges selected for each drug and investigational agent were based upon clinically achievable concentrations if the clinical Cmax of the agent was known.
Compounds. The drugs and investigational agents: inavolisib (NSC800729), alpelisib (NSC765974), duvelisib (NSC772469), copanlisib (NSC816437), ipatasertib (NSC767898), afuresertib (NSC778305), talazoparib (NSC767125), sapanisertib (NSC764658), selumetinib (NSC741078), tovorafenib (DAY101, NSC766906), vemurafenib (NSC761431), ravoxertinib (NSC781343), sotorasib (NSC818433), MRTX1133 (NSC 836407), abemaciclib (NSC 768073), palbociclib (NSC758247), venetoclax (NSC 766270), SY5609 (NSC837396), enzalutamide (NSC755605), and darolutamide (NSC825331), were obtained from the National Cancer Institute (NCI) Developmental Therapeutics Program Chemical Repository. The FDA-approved anticancer drug set is available from the NCI Developmental Therapeutics Program. […] The stock solutions were prepared in dimethyl sulfoxide (DMSO, Sigma-Aldrich, St. Louis, MO, cat. D2650) at 800-fold the tested concentration and stored at -70 degrees C prior to their use. All drugs and investigational agents were tested over a range starting from a high concentration at or near the clinical Cmax and decreasing in half-log increments. If the clinical Cmax for an agent had not been determined, the highest concentration tested was 10 microM.
Cell Culture. All cells were maintained in an incubator at 37 degrees C and 5% CO2 with 95% humidity. The PDC lines were cultured according to standard operating procedures established by the NCI PDMR (https://pdmr.cancer.gov/sops/default.htm). All PDCs were thawed and cultured in Matrigel-coated flasks prepared with a working solution of 1X Ham's F-12 nutrient mix, without supplementation (Invitrogen, Waltham, MA, cat. 11765054), 100 U/mL penicillin-streptomycin (Invitrogen, cat. 15140122), and 2.5% Matrigel (Corning Inc., Corning, NY, cat. 354248) for the first three passages. The 354836-022-R-J1-PDC, 475296-252-R-J1-PDC, and 997726-040-R-J2-PDC lines were cultured in 6A media, which includes advanced DMEM/F-12 (Thermo Fisher Scientific, cat. 12634028), 10 mM HEPES (Thermo Fisher Scientific, cat. 15630080), 1X GlutaMAX supplement (Thermo Fisher Scientific, cat. 35050061), 0.1 mg/mL primocin (InvivoGen, San Diego, CA, cat. ant-pm-2), 10% defined fetal bovine serum, heat inactivated (HyClone Laboratories Inc., Logan, UT, cat. SH30070.03HI), 50% L-WRN conditioned media (ATCC, cat. CRL-3276), 1.25 mM N-Acetyl-L-cysteine (Sigma-Aldrich, cat. A9165), 10 mM nicotinamide (Sigma-Aldrich, cat. N0636), 1X B-27 supplement (Thermo Fisher Scientific, cat. 17504044), 1X N-2 supplement (Thermo Fisher Scientific, cat. 17502048), and 10 microM Y-27632 dihydrochloride (Tocris Bioscience, Bristol, United Kingdom, cat. 1254). The 624824-186-R-J2-PDC line was cultured in 6C/Colon 1B media, which includes all 6A media components plus 50 ng/mL human EGF recombinant protein (Thermo Fisher Scientific, cat. PHG0311). […]
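Also: spheroids exposed to agents for seven days before readout.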

CCN1CCN(Cc2ccc(Nc3ncc(F)c(-c4cc(F)c5nc(C)n(C(C)C)c5c4)n3)nc2)CC1 was tested, and the viability, T/C (compound alone 0.0316 µM) was 81.9, 86.4, 104, 108%, the viability, T/C (compound alone 0.316 µM) was 78.8, 97.2, 117, 108% and the viability, T/C (compound alone 1 µM) was 76.8, 73.1, 104, 90.5%.
With CC1(C)CCC(Nc2ncc(C(F)(F)F)c(-c3c[nH]c4c(P(C)(C)=O)c(C#N)ccc34)n2)CN1 (stereo unspecified) the viability, T/C (compound alone 0.0316 µM) was 85.5, 73.7, 109, 96.5%, the viability, T/C (compound alone 0.316 µM) was 59.5, 69.1, 90.4, 92.5% and the viability, T/C (compound alone 1 µM) was 84.4, 70.4, 105, 90.6%. For the same compound, the viability, T/C (compound alone 3.16 µM) was 81.6, 66.9, 102, 87.2%.
With CC(C)NCC(C(=O)N1CCN(c2ncnc3c2C(C)CC3O)CC1)c1ccc(Cl)cc1 (stereo unspecified) the IC50 was 1.38, 1.44, 2.88, 4.35 µM and the viability, T/C (compound alone 1 µM) was 53.7, 58.3, 74.1, 87.3%.
For Cn1ncnc1[C@H]1c2n[nH]c(=O)c3cc(F)cc(c23)N[C@@H]1c1ccc(F)cc1, the viability, T/C (compound alone 0.1 µM) was 78.3, 87.4, 104, 92.8%.
CC1(C)CCC(CN2CCN(c3ccc(C(=O)NS(=O)(=O)c4ccc(NCC5CCOCC5)c([N+](=O)[O-])c4)c(Oc4cnc5[nH]ccc5c4)c3)CC2)=C(c2ccc(Cl)cc2)C1 was tested, and the viability, T/C (compound alone 3.16 µM) was 65.5, 65.1, 79.5, 93.5%.
C#Cc1c(F)ccc2cc(O)cc(-c3ncc4c(N5CC6CCC(C5)N6)nc(OCC56CCCN5CC(F)C6)nc4c3F)c12 (stereo unspecified) was tested, and the viability, T/C (compound alone 10 µM) was 72, 65.7, 87.8, 97.5%.
For Cc1nc(NC(=O)N2CCCC2C(N)=O)sc1-c1ccnc(C(C)(C)C(F)(F)F)c1 (stereo unspecified), the viability, T/C (compound alone 0.1 µM) was 97.3, 102, 104, 95.6, 92.6, 79, 103, 107%.
In the case of Cn1ncc(Cl)c1-c1cc(C(=O)NC(CN)Cc2cccc(F)c2)sc1Cl (stereo unspecified), the IC50 was 1.39 µM, 665 nM, 2.68 µM, 2.69 µM, the viability, T/C (compound alone 0.316 µM) was 74.4, 63, 92.7, 98.8% and the viability, T/C (compound alone 1 µM) was 50.8, 41.1, 71.6, 67.2%.

— PubChem BioAssay AID1963979 (Molecular Pharmacology Branch, DTP, NCI, 2024)
